From publication PMC4336329 (PLoS ONE, 2015) come the findings set out here.

The campaign covered roughly 310,000 compounds. About 2,200 (0.71%) showed an effect of 50% or more. Effects have a minus sign here. This is one part of the list.

The target of the assay is human ether-à-go-go-related gene (hERG) potassium channel (human, UniProt Q12809). Kind of assay: primary screen, population patch clamp on CHO cells stably expressing hERG.
Sequence of human ether-à-go-go-related gene (hERG) potassium channel (Q12809 whole entry, looked up): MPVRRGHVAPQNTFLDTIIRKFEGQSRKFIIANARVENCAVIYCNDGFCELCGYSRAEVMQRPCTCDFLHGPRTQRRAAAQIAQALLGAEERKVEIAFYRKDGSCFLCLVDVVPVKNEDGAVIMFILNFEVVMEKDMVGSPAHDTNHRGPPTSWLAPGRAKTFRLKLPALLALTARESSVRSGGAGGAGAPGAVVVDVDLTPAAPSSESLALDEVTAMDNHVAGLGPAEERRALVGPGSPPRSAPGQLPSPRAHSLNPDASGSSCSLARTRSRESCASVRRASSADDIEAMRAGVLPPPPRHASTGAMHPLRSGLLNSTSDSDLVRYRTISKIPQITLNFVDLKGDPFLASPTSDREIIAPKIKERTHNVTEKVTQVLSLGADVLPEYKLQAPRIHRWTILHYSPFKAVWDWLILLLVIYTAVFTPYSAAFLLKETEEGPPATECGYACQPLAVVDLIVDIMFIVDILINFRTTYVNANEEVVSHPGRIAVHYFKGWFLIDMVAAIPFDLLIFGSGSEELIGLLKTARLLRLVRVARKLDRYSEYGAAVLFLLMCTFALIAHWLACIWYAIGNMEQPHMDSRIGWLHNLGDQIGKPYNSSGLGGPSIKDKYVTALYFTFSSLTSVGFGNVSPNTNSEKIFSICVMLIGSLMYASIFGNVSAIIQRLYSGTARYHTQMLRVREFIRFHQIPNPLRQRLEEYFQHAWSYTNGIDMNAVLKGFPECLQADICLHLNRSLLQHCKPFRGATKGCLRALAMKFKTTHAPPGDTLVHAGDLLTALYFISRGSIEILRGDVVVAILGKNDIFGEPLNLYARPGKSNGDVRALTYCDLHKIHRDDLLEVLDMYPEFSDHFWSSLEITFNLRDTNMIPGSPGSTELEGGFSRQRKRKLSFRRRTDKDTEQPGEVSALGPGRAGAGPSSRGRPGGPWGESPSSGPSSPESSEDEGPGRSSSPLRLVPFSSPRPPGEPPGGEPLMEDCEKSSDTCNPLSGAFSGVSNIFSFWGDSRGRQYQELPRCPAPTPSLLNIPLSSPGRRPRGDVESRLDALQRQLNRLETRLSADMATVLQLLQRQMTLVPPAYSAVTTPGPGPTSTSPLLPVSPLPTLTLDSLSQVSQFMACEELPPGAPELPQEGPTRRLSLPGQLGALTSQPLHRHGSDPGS
Consider `CC(C)(C)NC(=O)NC(=O)COC(=O)c1cc(=O)[nH]c2ccccc12`, for which the “hERG current change (%, negative = inhibition) at 1uM” value was 0.89%.
With `C=CCn1c(CSCc2ccccc2)nnc1SCC(=O)N1CCN(c2ccccc2)CC1` the figure was 1.93%; with `CC1SC2(NC1=O)C1CC3CC(C1)CC2C3` (stereo not drawn), 2.81%; with `Cl.O=C(c1ccc(Br)cc1)C(CN1CCOCC1)c1ccccc1` (stereo not drawn), 11%.
Next, `COc1cccc(CN(C)C(=O)CCNC(=O)c2ccco2)c1`: 8.78%.
With `O=c1nc(/C=C/c2ccc(Cl)cc2Cl)cc(C(F)(F)F)[nH]1` the figure was 2.83%.
Take `O=S(=O)(Nc1ccccc1Cl)c1cc(NC(=S)NCCN2CCOCC2)ccc1Cl`: the “hERG current change (%, negative = inhibition) at 1uM” value turned out to be 6.34%.
With `COc1ccccc1Cn1c(=O)c2ccccc2n2c(SCC(=O)N3CCCCC3)nnc12` the figure was 14.6%.
With `COc1ccc(C2N(Cc3ccccc3)CCN2Cc2ccccc2)cc1[N+](=O)[O-]` the figure was 5.91%.
Next, `O=S(=O)([N-]c1nc2ccccc2nc1-n1cc[n+](Cc2ccccc2)c1)c1ccc(Cl)cc1`: 10.6%.
For `Cc1cc(C)nc(NC(=S)Nc2cccc(F)c2)c1`, the “hERG current change (%, negative = inhibition) at 1uM” value was found to be 6.3%.
Next, `Cc1cc(C)n(-c2cccc(Cl)c2C#N)n1`: -0.42%.
With `COc1ccccc1NC(=O)CC(NCCN(C)C)C(=O)O` (stereo not drawn) the figure was 24.7%; with `CCOC(=O)C1=C(O)C(=O)N(c2ccc(S(N)(=O)=O)cc2)C1c1ccc(OC)cc1` (stereo not drawn), 0.861%; with `Cc1nc2sc(C(c3ccco3)N3CCN(c4ccccc4)CC3)c(O)n2n1` (stereo not drawn), 6.29%.
Next, `O=C1COc2ccc(S(=O)(=O)Nc3ccc4c(c3)OCO4)cc2N1`: 11.1%; `CC(=O)Nc1ccc(S(=O)(=O)N2CCSC2c2ccco2)cc1` (stereo not drawn): 12.8%.
As for `C#CCN(CC=C)C(=O)c1cccc(OC2CCN(S(C)(=O)=O)CC2)c1`, the “hERG current change (%, negative = inhibition) at 1uM” value is 7.58%.
On to `COCCn1c(C)cc(C(=O)CN2C(=O)NC3(CCCCCC3)C2=O)c1C`, for which the “hERG current change (%, negative = inhibition) at 1uM” value was -2.21%.
Next, `CCOc1ccc(C(CC(=O)O)n2cnnn2)cc1OC` (stereo not drawn): 12.1%.
Next, `Cc1nn(CC(=O)Nc2ccc3c(c2)CCC3)c(C)c1[N+](=O)[O-]`: 12.1%; `CCOc1ccc(C(=O)CSc2nnc(C3CC3)n2C)cc1`: 16.4%; `O=C(NNc1cccc(Cl)n1)c1ccccc1CC[N+](=O)[O-]`: 12.8%.
With `O=C(Nc1nc(-c2ccc(Cl)cc2)cs1)C1CCCO1` (stereo not drawn) the figure was 4.86%; with `CCOC(=O)C(=O)c1c(-c2ccccc2)nc2ccccn12`, 12.6%; with `CCOC(=O)C1NN=C(C(=O)c2ccccc2)C1c1ccc(OC)cc1` (stereo not drawn), 9.46%.
As for `Cc1ccc(CS(=O)(=O)Cc2ccc(C(=O)NC3CCCCCC3)o2)cc1`, the “hERG current change (%, negative = inhibition) at 1uM” value is given as -1.18%.
On to `Cc1ccccc1C(=O)Nc1c(C(=O)N(CCN(C)C)Cc2ccco2)oc2ccccc12`, for which the “hERG current change (%, negative = inhibition) at 1uM” value is listed as -81.1%.
With `CCOC(=O)c1nnn(-c2ccccc2C#N)c1C` the figure was 4.79%.
With `O=C(COC(=O)C1(c2ccc(Cl)cc2)CCCC1)N1CCc2ccccc21` the figure was 3.12%; with `C(#CCN1CCOCC1)COCCOC(c1ccccc1)c1ccccc1`, 12.8%.
Next, `Cc1cccc(-c2nn(-c3ccccc3)cc2C(=O)NCC(c2cccs2)N2CCOCC2)c1` (stereo not drawn): 8.19%; `O=C(Nc1ccccc1O)c1csc2c1CCCC2`: 9.4%.
On to `CCOc1ccccc1NC(=O)COC(=O)c1cc[n+]([O-])cc1`, for which the “hERG current change (%, negative = inhibition) at 1uM” value is reported as 17.1%.
`O=C1NC2(CCCCCC2)C(=O)N1Cc1ccccc1`: the “hERG current change (%, negative = inhibition) at 1uM” value turned out to be 11.7%.
Next, `CN(C)c1ccc(/C=C(\NC(=O)c2ccccc2)C(=O)NCc2ccncc2)cc1`: 4.78%; `CCOc1cccc(NC(=O)Cc2cccs2)c1`: 6.83%; `CCOc1ccccc1C(=O)OC(C)C(=O)Nc1ccc(S(=O)(=O)N2CCCC2)cc1` (stereo not drawn): 5.72%.
With `CCOC(=O)N/N=C/c1cc(C)n(-c2ccccc2)c1C` the figure was 7.84%; with `COC(=O)c1ccc(OCC(O)CN(CC(C)C)CC(C)C)cc1` (stereo not drawn), 6.51%.
With `Cc1nn(CCC(=O)N2CCN(S(=O)(=O)c3ccc(Cl)cc3)CC2)c(C)c1C` the figure was 11.7%; with `COc1ccc(CN(C)CC(=O)NC(=O)NCc2ccccc2)cc1OC`, 17.4%; with `Nc1ccc(S(=O)(=O)Nc2nccc(/C=C/c3ccccc3F)n2)cc1`, 13.8%.
In the case of `CC(C(=O)Nc1nccs1)N1C(=O)C2CC=CCC2C1=O` (stereo not drawn), the “hERG current change (%, negative = inhibition) at 1uM” value was 8.41%.
As to `Cc1ccc(C)n1-c1ccc(N2CCOCC2)c(Br)c1`, the “hERG current change (%, negative = inhibition) at 1uM” value was determined as 7.44%.
